# In ChEMBL document CHEMBL4888484, “Replenishing the malaria drug discovery pipeline: Screening and hit evaluation of the MMV Hit Generation Library 1 (HGL1) against asexual blood stage Plasmodium falciparum ,using a nano luciferase reporter read-out” (2022):
# Screen size: about 150,000 compounds; about 540 (0.36%) showed an effect of 50% or more. This is one part of the list.
# Tested on: Plasmodium falciparum
# Test: Primary screen in NF54 nanoGlo assay, in single point, at 2uM, 72h; a lower Z score goes with more inhibition
# Type: functional, Erythrocyte
# Settings: timepoint 72 hour
Compound,% Inhibition,Z score
CC(C)(C)N1C(=O)NC(=O)C2(Cc3cc(NC(=O)c4ccc(F)cc4)ccc3N3CCCCCC32)C1=O (stereo unspecified),-8%,1.59
CC(C)N1C[C@@H]2OCC(=O)N(C(C)C)[C@@H]2C1,15%,-1.71
Cc1cc(C(=O)NC2CC2)nn1[C@@H](C)C1CC1,-5%,0.91
O=C(NCCN1CCCC1=O)c1ccc(-c2ccc3oc(=O)[nH]c3c2)cc1,-13%,2.55
COc1cc(-c2noc(-c3ccccc3)n2)ccc1OCC(=O)N1CCN(Cc2ccccc2)CC1,-2%,0.29
CN1CC[C@@H]2CN(C(=O)CC3(C)CC3)C[C@@H]21,-4%,0.42
Cc1nc2n(n1)CC(NC(C)Cc1ccccc1F)CC2 (stereo unspecified),11%,-1.64
CCc1ncc(C(=O)N2C[C@H](c3ccc(C)cc3)[C@@H]3[C@H]2C2CCN3CC2)cn1,-1%,0.14
O=C1O[C@H]2CN(C3CCCC3)C[C@H]2N1CCc1ccccn1,-22%,1.93
CN1CCN(Cc2ccc3c(c2)OCCO3)C[C@@H]1CCO,-14%,1.83
O=C(O)[C@@H](c1ccccc1F)N1CCC(c2c[nH]c3ccccc23)CC1,-12%,1
Oc1ccc(Cl)cc1C1=NN[C@H](c2cccnc2)C1,19%,-2.43
CCCn1cc(C(=O)N[C@@H]2c3ccccc3C[C@H]2O)c(C)n1,3%,-0.38
CCN(CC)C(=O)[C@H](C)N1CCc2ccnc(N(C)C)c2C1,-4%,0.57
CC(Cc1ccc(O)cc1)NC(C)c1ccc2ccccc2n1 (stereo unspecified),-15%,1.3
O=c1cnc2ccccc2n1Cc1cncn1C1CC1,-1%,0.17
O=C(c1cnn(Cc2ccccc2)c1)N1CCC2(CC1)OCCO2,-6%,0.92
CC(C)N1C(=O)NC(=O)C2(Cc3ccccc3N3CCN(Cc4ccccc4)CC32)C1=O (stereo unspecified),34%,-1.78
COCCOCC(=O)N1C[C@@H](c2ccc(F)cc2)[C@@H]2[C@H]1C1CCN2CC1,3%,-0.54
Cc1ccc(CNC(=O)N2[C@@H]3CC[C@H]2Cc2nc(C)[nH]c(=O)c2C3)cc1,-9%,1.35
Cc1ocnc1C(=O)N[C@H]1COC[C@@H]1N1CCCC1,-5%,0.77

Compound,% Inhibition,Z score
CCCN1C[C@@H]2Oc3ncccc3C(=O)N(C)[C@@H]2C1,-6%,0.89
CCOc1ccccc1OCC#CCN1CCCC1,-15%,1.73
Cc1cc(CC(C)NC2CC3CCC(C2)N3C(=O)OC(C)(C)C)n[nH]1 (stereo unspecified),-1%,0.08
Cn1cc(C(=O)N[C@@H]2c3ccccc3CC[C@@H]2O)c2cc(F)ccc21,-12%,1.62
COc1cccc([C@H]2CN(S(=O)(=O)N(C)C)[C@@H]3C4CCN(CC4)[C@H]23)c1,-7%,0.79
OCc1ccnc(N2CCC[C@H]2c2cncc(Br)c2)n1,4%,-0.77
O=c1[nH]c2ccc(S(=O)(=O)NCc3cccn3Cc3ccccc3)cc2o1,-13%,1.29
Cc1ccccc1C(=O)N1CCC2(CC1)c1nccn1-c1ccccc1CN2CC(C)C,-13%,1.7
Cc1noc(C)c1CN1CCCN(C(=O)Cc2ccccc2)CC1,-6%,0.74
O=C1CN(CC23CCC(CC2)C3)CCN1,2%,-0.23
O=C(Cc1cnccn1)N1C[C@@H]2CC[C@H]1CN(Cc1cscn1)C2,-8%,1.07
CN1CCC(N(C)C2CCCCC2N(C)C(=O)Cc2ccc(O)cc2)CC1 (stereo unspecified),34%,-4.44
CC[C@@H](Cn1ccnc1)NCc1cc(C)c(C)o1,0%,0.01
COCC1(C(=O)N2C[C@H](c3ccccc3)[C@@H]3[C@H]2C2CCN3CC2)CCC1,-5%,0.67
COC[C@H](C)NCc1ccc(C#N)c(Cl)c1,-7%,0.71
c1ccc([C@H]2CN(Cc3nccs3)[C@@H]3C4CCN(CC4)[C@H]23)cc1,2%,-0.29
CCN1C(=O)N=C(O)[C@]2(Cc3c(ccc4ccccc34)N(C)C2)C1=O,-11%,1.99
Cc1cc(C(=O)N[C@H]2CCc3nccn3C2)c(C)n1CC1CC1,-10%,2.04
c1cc2c(c(N3CCNCC3)c1)CCN2,2%,-0.25
CN1CCN(c2nnc(-c3ccon3)s2)C[C@@]12CCOC2,0%,0
O=C(CN1CCN2CCC[C@H]2C1)Nc1ccc(Cl)cn1,-2%,0.36

Compound,% Inhibition,Z score
CC[C@]1(c2ccccc2)C(=O)NC(=O)N(C(=O)c2ccccc2F)C1=O,-26%,3.01
Nc1ccc2[nH]c(CCN3CCOCC3)nc2c1,1%,-0.2
Cc1ccccc1[C@@H]1c2cccn2-c2ccccc2CN1C(=O)NCc1ccc(F)cc1,2%,-0.21
O=C(N/C=C/c1ccco1)OCC(Cl)(Cl)Cl,1%,-0.18
Cc1cc(NC(=O)[C@H](C)N2CCCC3(CCCCC3)C2)on1,-3%,0.41
CCc1n[nH]c(C(=O)N2C[C@@H](c3ccc(C)cc3)[C@@H]3[C@H]2C2CCN3CC2)c1C,-5%,0.95
C[C@H]1CN(Cc2cccnc2)CCN1C(=O)Cc1ccc(F)c(Br)c1,-16%,1.45
O=C(Cc1ccc(CO)cc1)N1CCN(CC2CC2)[C@@H]2CS(=O)(=O)C[C@@H]21,-11%,1.64
CN1CC(C(=O)c2ccc(Cl)cc2)C(c2ccccc2)C1 (stereo unspecified),-1%,0.14
CCN1CCN(C(=O)CCc2c(C)noc2C)[C@H]2CS(=O)(=O)C[C@H]21,6%,-1.14
CC(C)CC1C(F)(F)C12CC1CCC(C2)N1 (stereo unspecified),-4%,0.84
Cc1nc2ccccc2c(=O)n1-c1ccc2ccccc2c1,-3%,0.38
C=CCOc1cccc2c1cc(C(=O)N1CCC(C)CC1)n2Cc1c(F)cccc1F,-2%,0.43
CC(C)c1ccc(CC2(CN3C[C@H]4C[C@H](C3)c3cccc(=O)n3C4)C(=O)NC(=O)N(c3ccccc3)C2=O)cc1 (stereo partly specified),27%,-3.49
Cc1ccc(CNC(=O)[C@H]2CCCN(S(=O)(=O)c3ccc4[nH]c(=O)oc4c3)C2)o1,-21%,2.14
O=c1c2ccccc2nc(-c2ccoc2)n1-c1ccccc1,-6%,0.72
CN1CC[C@]2(CCN(Cc3cnc(C(C)(C)C)nc3)C2)C1,-1%,0.09
C[C@@H](CCCC(C)(C)O)NC1CCCCCCC1,-14%,1.93
CCn1c(=O)oc2cc(-c3noc(-c4n[nH]c5c4CCCC5)n3)ccc21,-11%,1.03
CN1C(=O)N[C@@H]2CN(Cc3cccc4nccn34)CC[C@@H]21,-11%,2.1
O=C1C[C@@]2(CCN(CCCc3cccnc3)C2)Oc2ccccc21,6%,-0.76

Compound,% Inhibition,Z score
Cn1ncc2c(N3CC4CC3CN4Cc3ccccc3)ncnc21 (stereo unspecified),-12%,1.65
Cn1nccc1C1=CC2CCC(C1)N2CCN1CCCS1(=O)=O (stereo unspecified),-6%,0.75
CNc1ncc(CN(C)c2nc(N(C)C)nc(C)c2C)cn1,-10%,1.34
O=S(=O)(c1ccccc1Br)N1C2CCC1c1cncnc1C2 (stereo unspecified),-12%,1.49
Clc1cccc2c(N3CC[C@]4(CCNC4)C3)ccnc12,23%,-3.12
CCN(CC)C[C@H]1C[N@@]2CC[C@H]1C[C@@H]2CNS(=O)(=O)c1ccc(C)cc1,-10%,1.58
CN1CC[C@]2(CCN(c3ccnc4ccsc34)C2)C1,98%,-10.65
CCc1ccc(CN[C@@H](CC)Cn2ccnc2)nc1,5%,-0.99
Cc1ccc(C2CN(C)CC2C(=O)c2ccc(F)cc2)cc1 (stereo unspecified),-1%,0.19
CN1CCC2=C(C1)C(O)=NC1(CCCCC1)N2,-3%,0.31
Cc1cc(Cl)cc2c(N3CC[C@@]4(O)CCNC[C@H]4C3)ccnc12,3%,-0.52
CCc1nnc(CN2CCC(c3ccnc4ccccc34)CC2)o1,-3%,0.52
CCOC[C@@H](O)CN(C1CCCCC1)C1CC1,-6%,0.89
Cc1cccnc1C(=O)N1CC[C@@H]2CN(Cc3cccnc3)[C@@H]2C1,-14%,1.92
O=C1NC(=O)C2(Cc3ccccc3N3CCN(c4ccccc4)CC32)C(=O)N1CCc1ccccc1 (stereo unspecified),-4%,0.54
CCCN1C(=O)NC(=O)C2(Cc3cc4cc(C)ccc4nc3N3CCCCC32)C1=O (stereo unspecified),-10%,1.31
COc1ccc(CN2C(=O)NC(=O)C(CCc3ccccn3)(CCc3ccccn3)C2=O)cc1,2%,-0.33
Fc1ccc(/C=C/CN2CC[C@@H]3CNC[C@@H]32)cc1,-13%,2.46
Cc1cccc(CC(=O)N2CCC[C@](c3nnnn3C3CCCC3)(N(C)C)C2)c1,-12%,1.63
O=C(c1cn(C[C@H](O)c2ccccc2F)nn1)N1CCC2(CC1)OCCO2,-15%,2.84
